The record followed here is the supplement of paper PMC10600219.

Structures can show the parent of a compound that is named as a salt. In all, about 2,800 compounds were measured (“cell viability relative to vehicle”: median about 1.1, lowest 2% from about 0.19 on). Some of the results follow.

The experiment concerns NCI-H2228 parental. Nature of the experiment: cell viability relative to vehicle (fraction of vehicle); NCI-H2228 is an ALK-positive lung cancer line and DTP means drug-tolerant persister; higher = less growth inhibition. To be noted: 100 nM; treatment time 6 days. In short, it runs like this:
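The 3114-agent TargetMol anti-cancer compound library was tested at 100 nM for 6 days on parental NCI-H2228 cells and on persister cells derived with 1000 nM of a targeted drug for 13 days. ATP readout by the CellTiter-Glo 3D Cell Viability Assay gave cell viability relative to DMSO vehicle-treated cells.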
With `CN1CCN(c2cc(-c3ccccc3)nc(N)n2)CC1`, the cell viability worked out at 1.19.

As to `CCN(CC)CCNC(=O)c1cc(Cl)c(N)cc1OC` [Metoclopramide hydrochloride], the cell viability came to 1.14.

Regarding `N#C/C(=C\c1cn(-c2ccccc2)c2ccccc12)C(=O)O`, the cell viability came to 1.06. In the case of `CC1=NN(c2ccccc2)C(=O)C1` [Edaravone] it was 1.11; in that of `Nc1ccccc1S(N)(=O)=O` [2-Aminobenzenesulfonamide], 1.01. For `COc1cc2c(Oc3ccc(NC(=O)C4(C(=O)Nc5ccc(F)cc5)CC4)cc3F)ccnc2cc1OCCCN1CCOCC1` [Foretinib], the cell viability was found to be 1.08. Regarding `O=C(/C=C/c1ccc(O)cc1)CC(=O)/C=C/c1ccc(O)cc1` [Bisdemethoxycurcumin], the cell viability was determined as 1.1. For `C[S+]([O-])c1ccc(-c2nc(-c3ccc(F)cc3)c(-c3ccncc3)[nH]2)cc1` (centres undefined), the cell viability is 1.11. In the case of `CC(=O)c1ccc2c(c1)c1cc(C(C)=O)ccc1n2CCNC(C)C` [CBL0137 hydrochloride], the cell viability is 0.808. Turning to `CC1=CC(=O)C(C(C)C)=CC1=O` [Thymoquinon], the cell viability worked out at 0.987. `COCCNc1cc(NC(=O)N2CCCc3cc(CN4CCN(C)CC4=O)c(C=O)nc32)ncc1C#N` [Roblitinib]: the cell viability is 1.13. On to `O=C(O)Cc1c[nH]c2ccc(O)cc12`, for which the cell viability was determined as 1.11. In the case of `CN(C)CCC=C1c2ccccc2COc2ccccc21` [Doxepin hydrochloride], the cell viability was found to be 1.26. With `CCCCCCCCCCCCCC(=O)[O-].CCCCCCCCCCCCCC(=O)[O-].N[C@@H]1CCCC[C@H]1N.[Pt+2]` [Miriplatin], the cell viability was determined as 1.11.

For `N[C@@H](CO)C(=O)O` [serine], the cell viability turned out to be 1.06. For the compound `CN1CCC[C@@H]1Cc1c[nH]c2ccc(CCS(=O)(=O)c3ccccc3)cc12` [Eletriptan HBr], the cell viability turned out to be 0.946. Turning to `CC(C)[N+](C)(CCOC(=O)C1c2ccccc2Oc2ccccc21)C(C)C` [Propantheline bromide], the cell viability is 1.01.

As for `C#CCN[C@@H]1CCc2ccccc21` [Rasagiline], the cell viability amounted to 0.956. With `C/C(=C\c1csc(C)n1)[C@@H]1C[C@@H]2O[C@]2(C)CCC[C@H](C)[C@H](O)[C@@H](C)C(=O)C(C)(C)[C@@H](O)CC(=O)N1` [Ixabepilone], the cell viability was determined as 0.119.

`COc1cc(OC2CCN(C)CC2)ccc1Nc1ncc2c(n1)n(C1CCCC1)c(=O)n2C`: the cell viability amounted to 1.24. As for `COc1ccc(-c2cc(=S)ss2)cc1` [Anethole trithione], the cell viability is 1.

In the case of `CN/C(=C\[N+](=O)[O-])NCCSCc1ccc(CN(C)C)o1` [Ranitidin], the cell viability is 1.07. In the case of `C/C=C(\C)C(=O)OC1c2c(ccc3ccc(=O)oc23)OC(C)(C)C1OC(=O)/C(C)=C/C` (centres undefined) [Praeruptorin B] it was 1.08. Take `O=C(O)c1cn(C2CC2)c2cc(N3CCNCC3)c(F)cc2c1=O` [Ciprofloxacin]: the cell viability turned out to be 1.11.

As to `O=C(O)c1cn(C2CC2)c2cc(N3CCNCC3)c(F)cc2c1=O` [Ciprofloxacin hydrochloride], the cell viability turned out to be 0.894.

For the compound `CN1CC(=O)N2[C@H](c3ccc4c(c3)OCO4)c3[nH]c4ccccc4c3C[C@@H]2C1=O` [Tadalafil], the cell viability turned out to be 1.28. As to `CC(C)NCC(O)COc1ccc(CCOCC2CC2)cc1` (centres undefined) [Betaxolol hydrochloride], the cell viability turned out to be 1.05.

Take `CCc1nc(N)nc(N)c1-c1ccc(Cl)cc1` [Pyrimethamine]: the cell viability was 1.15. Consider `CCn1c(C(=O)N(C2CC2)C2CC2)cc2c3c(ncn3C)c(Nc3cc(C)n(C)n3)nc21`, for which the cell viability came to 0.914.

With `O=C(Nc1nc2ccc(NC(=O)C34CC5CC(CC(C5)C3)C4)cc2s1)c1ccccc1`, the cell viability stood at 1.04. Regarding `Nc1n[n+]([O-])c2ccccc2[n+]1[O-]` [Tirapazamine], the cell viability worked out at 0.825. Turning to `CC(C)(OCc1nn(Cc2ccccc2)c2ccccc12)C(=O)O` [Bindarit], the cell viability came out at 1.12. In the case of `C=CCSC[C@H](N)C(=O)O` [S-allyl-L-cysteine] it was 1.18; in that of `CC(NC(=O)c1ccccc1/N=C/c1c(O)ccc2ccccc12)c1ccccc1` (centres undefined) [Sirtinol], 1.03. In the case of `Cc1cccc(-c2[nH]c(C(C)(C)C)nc2-c2ccc3c(c2)OCO3)n1` it was 0.917; in that of `Clc1ccc(C(Cn2ccnc2)OCc2ccsc2Cl)c(Cl)c1` (centres undefined) [Vagistat], 1.03; in that of `COc1cc(C(=O)N2CCC(N3CCN(C)CC3)CC2)ccc1Nc1ncc2c(n1)N(C)c1ccccc1C(=O)N2C`, 1.11.

Take `COC(=O)/C=C/c1cccc(N(Cc2ccc(-c3ccc(N(C)C)cc3)cc2)C(=O)C2CCCCC2)c1` [Fexaramine]: the cell viability was 1.12.

As to `CC1=C(C(=O)Nc2ccc3[nH]ncc3c2)C(c2ccc(F)cc2)NC(=O)N1` (centres undefined), the cell viability turned out to be 0.961. Under `C[C@@H](Nc1cc(F)cc(F)c1)c1cc(C(=O)N(C)C)cc2c(=O)cc(N3CCOCC3)oc12` stands 1.

Turning to `c1cnc(N2CCN(Cc3ccc4c(c3)OCO4)CC2)nc1` [Piribedil], the cell viability is 0.978. In the case of `COc1cc2c(c(OC)c1OC)-c1c(cc3c(c1OC)OCO3)CC(C)C(C)C2` (centres undefined) [Schizandrin B] it was 1.06.

Turning to `NC(=O)CCC(N)C(=O)O` (racemic) [DL-Glutamine], the cell viability was found to be 1.01. Turning to `CCOC(=O)c1cnc2ccc(-c3cncc(NS(=O)(=O)c4ccccc4)c3)cn12`, the cell viability came to 0.943. As for `CC(C)(O)c1cc(Nc2cc(Oc3cn(C4CC4)nc3C3CCOCC3)ccn2)ccn1`, the cell viability turned out to be 1.04.

Turning to `CC(C)(C)OC(=O)c1ncn2c1C(C)(C)Nc1ccccc1-2`, the cell viability was 1.14. On to `CC(C)=CCC[C@](C)(O)[C@H]1CC[C@]2(C)[C@@H]1[C@H](O)C[C@@H]1[C@@]3(C)CC[C@H](O)C(C)(C)[C@@H]3CC[C@]12C` [(20S)-Protopanaxadiol], for which the cell viability worked out at 1.1. `Cc1ccc(-c2cn3c4c(sc3n2)CCCC4)cc1` [Pifithrin-β hydrobromide]: the cell viability was determined as 0.992.

For the compound `COc1cc2c(cc1OC)CC(=O)N(CCCN(C)C[C@H]1Cc3cc(OC)c(OC)cc31)CC2` [Ivabradine hydrochloride], the cell viability is 1.26. For the compound `O=C(O)C(=O)O.[NH-][C@@H]1CCCC[C@H]1[NH-].[Pt+2]` [Oxaliplatin], the cell viability amounted to 1.05. As for `Cc1ccc(NC(=O)c2ccc(CN3CCN(C)CC3)cc2)cc1Nc1nccc(-c2cccnc2)n1` [Imatinib Mesylate], the cell viability turned out to be 1.16. Under `Cc1ccc(NC(=O)c2ccc(CN3CCN(C)CC3)cc2)cc1Nc1nccc(-c2cccnc2)n1` [Imatinib] stands 1.11; under `O=C(NCC1(c2nc(-c3ccccc3)cs2)CCOCC1)c1cccc(-c2noc(C(F)(F)F)n2)c1`, 1.03; under `CCc1c2c(nc3ccc(O)cc13)-c1cc3c(c(=O)n1C2)COC(=O)[C@]3(O)CC`, 0.0693. Consider `CCc1cc2c(cc1N1CCC(N3CCOCC3)CC1)C(C)(C)c1[nH]c3cc(C#N)ccc3c1C2=O` [Alectinib], for which the cell viability turned out to be 0.592. On to `OC[C@H]1O[C@H](O[C@]2(CCl)O[C@H](CCl)[C@@H](O)[C@@H]2O)[C@H](O)[C@@H](O)[C@H]1Cl` [Sucralose], for which the cell viability came to 1.23. `CCC/N=C1\S/C(=C\c2ccc(OC[C@H](O)CO)c(Cl)c2)C(=O)N1c1ccccc1C` [Ponesimod]: the cell viability is 1.08. For `CNC(=O)c1cc(Oc2ccc(NC(=O)Nc3cc(C(C)(C)C)nn3-c3ccc4ncccc4c3)c(F)c2)ccn1`, the cell viability is 1.27. With `CC(C)C[C@H](NC(=O)[C@@H](NC(=O)c1cccc(-c2ccccc2)n1)[C@@H](C)O)B(O)O` [Delanzomib], the cell viability is 0.096.

Take `COc1ccc2c(c1)c(CC(=O)O)c(C)n2C(=O)c1ccc(Cl)cc1` [Indometacin]: the cell viability amounted to 1.13. `CN1CCC(=C2c3ccccc3CCc3cccnc32)CC1` [Azatadine Maleate]: the cell viability was determined as 1.14. Under `COC(=O)C1=CO[C@@H](O[C@@H]2O[C@H](CO)[C@@H](O)[C@H](O)[C@H]2O)[C@H]2[C@@H]1[C@H](O)C[C@]2(C)OC(C)=O` [8-O-Acetylshanzhiside methyl ester] stands 0.898; under `Oc1cc(O)c2c(c1)O[C@H](c1ccc(O)c(O)c1)[C@H](O)C2` [Epicatechin], 1.09; under `COc1ccc(C[C@H]2COC(=O)[C@@H]2Cc2ccc(O[C@@H]3O[C@H](CO)[C@@H](O)[C@H](O)[C@H]3O)c(OC)c2)cc1OC` [Arctiin], 1.13. Regarding `C(=C\c1ccccc1)/CN1CCN(C(c2ccccc2)c2ccccc2)CC1` [Stugeron], the cell viability came out at 1.1. For the compound `C[C@]1(O)C[C@@H](c2nc(-c3ccc4ccc(-c5ccccc5)nc4c3)c3c(N)nccn32)C1` [Linsitinib], the cell viability was determined as 0.726. Consider `CC(C)=CCc1c(O)ccc(C(=O)/C=C/c2ccc(O)cc2)c1O` [Isobacachalcone], for which the cell viability stood at 1.11.

As for `COc1ccc2c(c1OC)C(=O)O[C@@H]2[C@H]1c2c(cc3c(c2OC)OCO3)CCN1C` [Noscapine hydrochloride], the cell viability was 1.04.

On to `CC(=O)NCCCS(=O)(=O)O` [Acamprosate calcium], for which the cell viability amounted to 1.12. In the case of `O=C(O)c1cc(/N=N/c2ccc(O)c(C(=O)O)c2)ccc1O` [Olsalazine disodium] it was 1.29; in that of `N#Cc1cnc(Nc2cc(NC[C@H]3CNCCO3)c(C(F)(F)F)cn2)cn1`, 1.07. For `CCCC(CCC)C(=O)Nc1ccn([C@@H]2O[C@H](CO)[C@@H](O)C2(F)F)c(=O)n1`, the cell viability is 1.12.

Consider `O=C(Nc1ccccc1-c1cn2c(CN3CCNCC3)csc2n1)c1cnc2ccccc2n1` [SRT1720 hydrochloride], for which the cell viability came to 0.985.

Regarding `CC(C)(C)NCC(O)COc1cccc2c1CCC(=O)N2` (centres undefined) [Carteolol hydrochloride], the cell viability is 1.07.

`CNC(=O)c1cc(Oc2ccc(NC(=O)Nc3ccc(Cl)c(C(F)(F)F)c3)c(F)c2)ccn1` [Regorafenib]: the cell viability was determined as 0.996. In the case of `CN(C)CC(=O)Nc1ccc2[nH]c(=O)c3ccccc3c2c1` it was 1.15. Under `Cn1cc(-c2cc3c(N4CCN(c5ncc([C@@](C)(N)c6ccc(F)cc6)cn5)CC4)ncnn3c2)cn1` [Avapritinib] stands 0.846; under `COc1cc2c(=O)c(-c3ccc(O)cc3)coc2cc1O` [Glycitein], 1.14; under `N#CC(=C(O)c1ccc(Cl)cc1Cl)c1nc2ccccc2c(=O)[nH]1` [Ciliobrevin A], 0.975.
